The list shows a part of the results.
Tests used:
Experiment in all cases: glycan array binding signal (z-score within array); higher = stronger binding
Conditions in all cases: glycan notation: IUPAC condensed, linker removed
Fuc(a1-2)Gal = target: Fuc(a1-2)Gal
Method in brief: (§1)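 Negative Z-scores can be read as non-binding. The Z-score is calculated within each array and then averaged across arrays of one protein sequence at different concentrations or buffers and across linkers. Arrays, 3228 in all, were curated from the Consortium for Functional Glycomics database and kept only where the protein sequence was available.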

Fuc(a1-2)Gal(b1-3)GalNAc = target: Fuc(a1-2)Gal(b1-3)GalNAc
Method in brief: as §1

[1] = target: Fuc(a1-2)Gal(b1-3)GalNAc(a1-3)[Fuc(a1-2)]Gal(b1-4)Glc
Method in brief: as §1

[2] = target: Fuc(a1-2)Gal(b1-3)GalNAc(a1-3)[Fuc(a1-2)]Gal(b1-4)GlcNAc
Method in brief: as §1

[3] = target: Fuc(a1-2)Gal(b1-3)GalNAc(b1-3)Gal
Method in brief: as §1

[4] = target: Fuc(a1-2)Gal(b1-3)GalNAc(b1-3)Gal(a1-4)Gal(b1-4)Glc
Method in brief: as §1

[5] = target: Fuc(a1-2)Gal(b1-3)GalNAc(b1-4)[Neu5Ac(a2-3)]Gal(b1-4)Glc
Method in brief: as §1

Fuc(a1-2)Gal(b1-3)GlcNAc = target: Fuc(a1-2)Gal(b1-3)GlcNAc
Method in brief: as §1

[6] = target: Fuc(a1-2)Gal(b1-3)GlcNAc(b1-2)Man(a1-3)[Fuc(a1-2)Gal(b1-3)GlcNAc(b1-2)Man(a1-6)]Man(b1-4)GlcNAc(b1-4)GlcNAc
Method in brief: as §1

[7] = target: Fuc(a1-2)Gal(b1-3)GlcNAc(b1-2)Man(a1-3)[Fuc(a1-2)Gal(b1-3)GlcNAc(b1-2)Man(a1-6)]Man(b1-4)GlcNAc(b1-4)[Fuc(a1-6)]GlcNAc
Method in brief: as §1

[8] = target: Fuc(a1-2)Gal(b1-3)GlcNAc(b1-3)Gal(b1-4)Glc
Method in brief: as §1

[9] = target: Fuc(a1-2)Gal(b1-3)GlcNAc(b1-3)GalNAc
Method in brief: as §1

[10] = target: Fuc(a1-2)Gal(b1-3)GlcNAc(b1-3)[Fuc(a1-2)Gal(b1-3)GlcNAc(b1-6)]GalNAc
Method in brief: as §1

[11] = target: Fuc(a1-2)Gal(b1-3)GlcNAc(b1-3)[Gal(b1-4)GlcNAc(b1-6)]Gal(b1-4)Glc
Method in brief: as §1

[12] = target: Fuc(a1-2)Gal(b1-3)GlcNAc(b1-3)[Neu5Ac(a2-6)Gal(b1-4)GlcNAc(b1-6)]Gal(b1-4)Glc
Method in brief: as §1

[13] = target: Fuc(a1-2)Gal(b1-3)GlcNAc6S
Method in brief: as §1

[14] = target: Fuc(a1-2)Gal(b1-3)[Fuc(a1-4)]GlcNAc
Method in brief: as §1

[15] = target: Fuc(a1-2)Gal(b1-3)[Fuc(a1-4)]GlcNAc(b1-2)Man(a1-3)[Fuc(a1-2)Gal(b1-3)[Fuc(a1-4)]GlcNAc(b1-2)Man(a1-3)]Man(b1-4)GlcNAc(b1-4)GlcNAc
Method in brief: as §1

[16] = target: Fuc(a1-2)Gal(b1-3)[Fuc(a1-4)]GlcNAc(b1-2)Man(a1-3)[Fuc(a1-2)Gal(b1-3)[Fuc(a1-4)]GlcNAc(b1-2)Man(a1-6)]Man(b1-4)GlcNAc(b1-4)[Fuc(a1-6)]GlcNAc(b1-4)[Fuc(a1-6)]GlcNAc
Method in brief: as §1

[17] = target: Fuc(a1-2)Gal(b1-3)[Fuc(a1-4)]GlcNAc(b1-3)[Fuc(a1-3)[Gal(b1-4)]GlcNAc(b1-6)]Gal(b1-4)Glc
Method in brief: as §1

[18] = target: Fuc(a1-2)Gal(b1-3)[Fuc(a1-4)]GlcNAc(b1-3)[Gal(b1-4)GlcNAc(b1-6)]Gal(b1-4)Glc
Method in brief: as §1

Fuc(a1-2)Gal(b1-4)Glc = target: Fuc(a1-2)Gal(b1-4)Glc
Method in brief: as §1

Fuc(a1-2)Gal(b1-4)Glc6S = target: Fuc(a1-2)Gal(b1-4)Glc6S
Method in brief: as §1

Fuc(a1-2)Gal(b1-4)GlcNAc = target: Fuc(a1-2)Gal(b1-4)GlcNAc
Method in brief: as §1

[19] = target: Fuc(a1-2)Gal(b1-4)GlcNAc(b1-2)Man
Method in brief: as §1

[20] = target: Fuc(a1-2)Gal(b1-4)GlcNAc(b1-2)Man(a1-3)[Fuc(a1-2)Gal(b1-4)GlcNAc(b1-2)Man(a1-6)]Man(b1-4)GlcNAc(b1-4)GlcNAc
Method in brief: as §1

[21] = target: Fuc(a1-2)Gal(b1-4)GlcNAc(b1-2)Man(a1-3)[Fuc(a1-2)Gal(b1-4)GlcNAc(b1-2)Man(a1-6)]Man(b1-4)GlcNAc(b1-4)[Fuc(a1-6)]GlcNAc
Method in brief: as §1

[22] = target: Fuc(a1-2)Gal(b1-4)GlcNAc(b1-2)[Fuc(a1-2)Gal(b1-4)GlcNAc(b1-4)]Man(a1-3)[Fuc(a1-2)Gal(b1-4)GlcNAc(b1-2)Man(a1-6)]Man(b1-4)GlcNAc(b1-4)GlcNAc
Method in brief: as §1

[23] = target: Fuc(a1-2)Gal(b1-4)GlcNAc(b1-3)Gal(b1-4)GlcNAc
Method in brief: as §1

[24] = target: Fuc(a1-2)Gal(b1-4)GlcNAc(b1-3)Gal(b1-4)GlcNAc(b1-2)Man(a1-3)[Fuc(a1-2)Gal(b1-4)GlcNAc(b1-3)Gal(b1-4)GlcNAc(b1-2)Man(a1-6)]Man(b1-4)GlcNAc(b1-4)GlcNAc
Method in brief: as §1

B1: Nc3LysM (protein)
chain: QFTVPPDTTAEPNTIKTCTWWHVAGSGDSCTSIASTYGITSEQFARWDMETTDSPKNPSVATACKLTVGNSYCIENNFGQDDPPTPSISSSTLIGTATTSTTASTTTGNGISTPTPIQEGMETATTTTSSGNGITTPTPTQAGMETVGNCDRFHLVKSGDQCGTIASTYGITLANFYSWNPAVGTSCQSLWLDTYVCVRTIGFVPPKTTTTTTKKPTSTTSAGGVATPTPTQPGMETVSGCKKFHKGRGNVSTVASGDQCGTIATRYGISLANFYSWNPAVGSSCQTLWLDYYVCVGR
glycan array binding signal (z-score) (Fuc(a1-2)Gal): -0.045 | glycan array binding signal (z-score) (Fuc(a1-2)Gal(b1-3)GalNAc): -0.011 | glycan array binding signal (z-score) [1]: -0.272 | glycan array binding signal (z-score) [2]: -0.03 | glycan array binding signal (z-score) [3]: -0.014 | glycan array binding signal (z-score) [4]: 0.066 | glycan array binding signal (z-score) [5]: 0.115 | glycan array binding signal (z-score) (Fuc(a1-2)Gal(b1-3)GlcNAc): -0.102 | glycan array binding signal (z-score) [6]: -0.199 | glycan array binding signal (z-score) [7]: -0.202 | glycan array binding signal (z-score) [8]: 0.008 | glycan array binding signal (z-score) [9]: -0.059 | glycan array binding signal (z-score) [10]: 0.2 | glycan array binding signal (z-score) [11]: -0.155 | glycan array binding signal (z-score) [12]: -0.314 | glycan array binding signal (z-score) [13]: 0.034 | glycan array binding signal (z-score) [14]: 0.118 | glycan array binding signal (z-score) [15]: 0.066 | glycan array binding signal (z-score) [16]: -0.192 | glycan array binding signal (z-score) [17]: -0.135 | glycan array binding signal (z-score) [18]: -0.179 | glycan array binding signal (z-score) (Fuc(a1-2)Gal(b1-4)Glc): 0.401 | glycan array binding signal (z-score) (Fuc(a1-2)Gal(b1-4)Glc6S): 0.121 | glycan array binding signal (z-score) (Fuc(a1-2)Gal(b1-4)GlcNAc): -0.219 | glycan array binding signal (z-score) [19]: -0.104 | glycan array binding signal (z-score) [20]: -0.124 | glycan array binding signal (z-score) [21]: -0.258 | glycan array binding signal (z-score) [22]: -0.032 | glycan array binding signal (z-score) [23]: -0.004 | glycan array binding signal (z-score) [24]: -0.037

From the supplement of paper PMC8728848
